Test results as given in PubChem BioAssay AID686979 (National Center for Advancing Translational Sciences (NCATS), 2013).
Where “and” joins values, the source holds several entries; their conditions need not be identical. Equal values may be shown once. Out of some 420,000 compounds screened, about 50,000 (12%) were called active. The inconclusive results got no clear call from the source; some entries with a clear call stand among them for comparison. Calls follow the shape of the dose curve; as a rule, active = well fitted inhibition curve with a large enough effect; inconclusive = small, poorly fitted or top-dose-only effect; inactive = flat fitted curve, though single readings scatter. A potency beside an inconclusive call is a rough fit, not a confirmed value.

Assay: qHTS for Inhibitors of human tyrosyl-DNA phosphodiesterase 1 (TDP1): qHTS in cells in presence of CPT; also: nearly all actives have a fitted effect of over 55% in size
Details: chicken DT40 Tdp1-/-;hTDP1 cells + 20 nM CPT, ATP luminescence, 48 h; activity change, negative = growth inhibition: at 46.2 µM (top of the series) unless noted
How it was run: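 Cell growth measured by CellTiter-Glo luminescence after a minimum 48 h, 37 C compound exposure with 20 nM CPT in Tdp1-knockout DT40 cells stably expressing hTDP1, seeded 400/well; qHTS titration format.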
% is scaled to controls: 0 for no effect and ±100 for the full control effect; potency is read from the fitted curve at half-maximal effect; tags tell the direction and shape of the fitted curve.

Question: For Cc1cccc(C)c1NC(=O)CN(C)S(=O)(=O)c1ccc2c(c1)n(C)c(=O)c(=O)n2C, which “activity change, negative = growth inhibition” value is on record?
Answer: inactive: -7.26%

Question: Which Potency does the source give for CN(Cc1ccccc1)c1nc2c(c(=O)n(C)c(=O)n2C)n1CCCc1ccccc1 here?
Answer: active: 23.1 µM

Question: With COC(=O)CC(NS(=O)(=O)c1cccs1)c1ccc2c(c1)OCO2 (stereo not given) as the compound, how does the “activity change, negative = growth inhibition” value read?
Answer: inactive: -5.14%

Question: Which Potency does the source give for COc1ccc(C(=O)Nc2ccc3nc(SCC(=O)N4CCOCC4)sc3c2)cc1 here?
Answer: inconclusive: 29.1 µM [inhibitor, single point]

Question: Which Potency does the source give for Cc1ccc(OCCCCCN2CCOCC2)c(Cl)c1 here?
Answer: inconclusive: 0.411 µM [inhibitor, full curve, poor fit]

Question: With CCN(CC)CCn1c2c(c(SCC(=O)Nc3ccc4c(c3)OCCO4)nc1=O)CCCC2 as the compound, how does the Potency read?
Answer: inconclusive: 14.6 µM [inhibitor, partial curve]

Question: For CC1CCN(c2nc3ccc(C(=O)NCc4ccc(Cl)cc4)cc3s2)CC1, which Potency is on record?
Answer: inconclusive: 18.4 µM [inhibitor, single point]

Question: With O=C(OCCOc1cccc(Cl)c1)c1ccc2ncsc2c1 as the compound, how does the “activity change, negative = growth inhibition” value read?
Answer: inactive: 4.58%

Question: For CNc1cc(CSC)nc(SCc2ccc(Cl)c(Cl)c2)n1, which Potency is on record?
Answer: inconclusive: 23.1 µM [inhibitor, single point]

Question: Which Potency does the source give for C/C(Cn1nnc([N+](=O)[O-])n1)=N\NC(=O)c1ccccc1O here?
Answer: active: 14.6 µM

Question: Which Potency does the source give for O=C(Nc1ccc(Cl)cn1)c1cccc2c(Br)cccc12 here?
Answer: inconclusive: 23.1 µM [inhibitor, single point]

Question: With O=C(Cn1c(=O)nc(-c2ccccc2)c2cc(Cl)ccc21)NCCCc1ccccc1 as the compound, how does the “activity change, negative = growth inhibition” value read?
Answer: inactive: -3.24%

Question: With Cc1cc(O)c(-c2cc(O)c(C)cc2O)cc1O as the compound, how does the Potency read?
Answer: active: 5.17 µM

Question: With Cc1ccc(C(=O)NNC(=O)CSc2nc(N)cc(N)n2)cc1 as the compound, how does the activity change, negative = growth inhibition read?
Answer: inconclusive: -32.3% [inhibitor]

Question: With CCOC(=O)N(C)C[C@@H]1OCc2ccccc2-c2c(n(C)c3ccccc23)C(=O)N([C@H](C)CO)C[C@H]1C as the compound, how does the Potency read?
Answer: inconclusive: 29.1 µM [inhibitor, single point]

Question: Which Potency does the source give for COc1cccc(Cn2c(=O)c(-c3cccs3)nc3cnc(N4CCNCC4)nc32)c1 here?
Answer: inconclusive: 29.1 µM [inhibitor, single point]

Question: With CCc1nn(CC(=O)NC2CC2)c(=O)c2cc3ccccc3n12 as the compound, how does the “activity change, negative = growth inhibition” value read?
Answer: inactive: 3.28%

Question: For CCOC(=O)C1=C(CNCCc2ccc(Cl)cc2)NC(=O)NC1c1ccc2c(c1)OCO2 (stereo not given), which Potency is on record?
Answer: inconclusive: 25.9 µM [inhibitor, single point]

Question: Which Potency does the source give for COc1cc(OC)c2c(-c3cccc(/C=C/c4ccc(F)cc4)c3)cc(=O)oc2c1 here?
Answer: active: 20.6 µM

Question: With O=C1c2ccccc2-c2nnc(-c3ccc(O)cc3)cc21 as the compound, how does the Potency read?
Answer: inconclusive: 29.1 µM [inhibitor, single point]

Question: For CCCCCC[C@@H]([C@@H](C)O)n1cnc2c(N)ncnc21, which Potency is on record?
Answer: inconclusive: 26.6 µM [inhibitor, partial curve, poor fit] and inconclusive: 29.1 µM [inhibitor, single point]

Question: With COC(=O)c1sc(-c2cccs2)cc1NC(=O)/C=C/C(=O)O as the compound, how does the Potency read?
Answer: inconclusive: 23.1 µM [inhibitor, single point]

Question: For CC[C@]1(c2cccc(C)c2)C(=O)N(C(=O)OC)N1C(=O)OC, which Potency is on record?
Answer: active: 5.17 µM

Question: With O=C(O)COc1ccccc1/C=N/NC(=O)CSc1nnc(SCc2ccccc2)s1 as the compound, how does the Potency read?
Answer: inconclusive: 20.6 µM [inhibitor, single point]

Question: Which Potency does the source give for COCc1ccc(-c2c(-c3ccc(OC)cc3)oc(=O)c3cc(OC)c(OC)cc23)cc1 here?
Answer: inconclusive: 25.9 µM [inhibitor, single point]

Question: Which “activity change, negative = growth inhibition” value does the source give for c1ccc2c(c1)nnn2-c1ncnc2sccc12 here?
Answer: inactive: 3.67%

Question: With N=C1SCC(=O)N1c1ccccc1Cl as the compound, how does the “activity change, negative = growth inhibition” value read?
Answer: inactive: 19.5%

Question: With COc1cccc(CNC(=O)c2c3c(nc4ccccc24)C(=O)N(C2CCCCC2)C3)c1 as the compound, how does the Potency read?
Answer: active: 13 µM

Question: Which Potency does the source give for Cc1ccc(CCCOC(=O)C[N+]2(C)CCCC2)cc1 here?
Answer: inconclusive: 1.16 µM [inhibitor, full curve, poor fit]

Question: For Cc1ccc(C(=O)c2ccccc2C(=O)OCC(=O)N2CC(C)CC(C)C2)cc1 (stereo not given), which Potency is on record?
Answer: inconclusive: 16.4 µM [inhibitor, single point]

Question: With CCN(Cc1ccccc1)c1ccc(/C=C/c2ccnc3ccccc23)cc1 as the compound, how does the Potency read?
Answer: inconclusive: 35.5 µM [inhibitor, single point]

Question: Which Potency does the source give for O=C(N/N=C/c1ccc[nH]1)c1cc(-c2cccs2)nc2ccccc12 here?
Answer: inconclusive: 29.1 µM [inhibitor, single point]

Question: With Cc1cc(NC(=O)CCCN2C(=O)c3cccc4cccc(c34)C2=O)no1 as the compound, how does the “activity change, negative = growth inhibition” value read?
Answer: inactive: 1.47%

Question: With COc1ccc(C(=O)C[n+]2cn(C(F)F)c3ccccc32)c(F)c1 as the compound, how does the Potency read?
Answer: inconclusive: 29.1 µM [inhibitor, single point]

Question: Which Potency does the source give for CCOc1ccc(-n2ccnc(SCC(=O)NCCc3ccccc3)c2=O)cc1 here?
Answer: inconclusive: 14.6 µM [inhibitor, partial curve, poor fit]

Question: Which “activity change, negative = growth inhibition” value does the source give for COc1ccc(C)cc1-n1c(-c2ccncc2)n[nH]c1=S here?
Answer: inactive: 0.419%

Question: For CNC(=S)NC1(C)CCS(=O)(=O)C1 (stereo not given), which “activity change, negative = growth inhibition” value is on record?
Answer: inactive: 0.0459%

Question: Which Potency does the source give for CC1(C)CC(=O)c2c(oc3cc(O)c(O)cc23)C1 here?
Answer: inconclusive: 29.1 µM [inhibitor, single point]

Question: Which Potency does the source give for COc1cccc(CNC(=O)Cc2ccc(-c3ccccc3)cc2)c1 here?
Answer: inconclusive: 25.9 µM [inhibitor, single point]

Question: Which Potency does the source give for Cc1ccccc1S(=O)(=O)Oc1ccccc1C(=O)Oc1ccccc1 here?
Answer: inconclusive: 18.4 µM [inhibitor, single point]

Question: Which Potency does the source give for Cc1ccc(C)c(CSc2nc3ccncc3n2Cc2nc(-c3ccccc3Cl)oc2C)c1 here?
Answer: active: 20.6 µM

Question: Which Potency does the source give for CCc1nc2ccc(C(=O)NCc3ccc4c(c3)OCO4)cn2c1N(C)Cc1cccs1 here?
Answer: inconclusive: 23.1 µM [inhibitor, single point]

Question: For Cc1ccc2nc(-c3ccc(F)cc3)c(Cc3cccc(Cl)c3)n2c1, which Potency is on record?
Answer: active: 20.6 µM

Question: For O=C(NCc1ccccc1)[C@@H]1CCCN1C(=O)[C@@H]1CCCN1C(=O)c1cccs1, which “activity change, negative = growth inhibition” value is on record?
Answer: inactive: -44%

Question: With CCOC(=O)C[C@H]1c2ccc(C(F)(F)F)cc2S(=O)(=O)N1Cc1ccccc1 as the compound, how does the Potency read?
Answer: inconclusive: 35.5 µM [inhibitor, single point]
